Experimental data published in PubChem BioAssay AID624296 (National Center for Advancing Translational Sciences (NCATS), 2012).
About 9,900 (2.8%) of roughly 350,000 compounds were called active. The shares of active, inactive and inconclusive entries below differ from those in the screen. Calls follow the shape of the dose curve; as a rule, active = well fitted activation curve with a large enough effect; inconclusive = small, poorly fitted or top-dose-only effect; inactive = no such curve, though single readings can be large or run the other way. No potency is given beside an inconclusive call; the fits are too rough.
Potency is read from the fitted curve at half-maximal effect; tags tell the direction and shape of the fitted curve.

Assay: A quantitative high throughput screen for small molecules that induce DNA re-replication in MCF 10a normal breast cells. Also: nearly all actives have a fitted effect of over 50% in size.
Conditions: MCF 10A DNA re-replication, Hoechst nuclear intensity, 48 h; series mostly up to 46.1 µM
With CC1=C(C(=O)OCCBr)C(c2cccc3ccccc23)NC(=O)N1 (stereo unspecified) the Potency was “inactive”. In the case of Clc1ccc(SCc2nc3ccccc3[nH]2)cc1, the Potency is reported as inconclusive [activator, single point]. In the case of CC1(C)OC1COc1c2ccoc2cc2oc(=O)ccc12 (stereo unspecified), the Potency is reported as inconclusive [activator, full curve, poor fit]. For C=CCn1c(SCC(=O)c2cccs2)nc2sc(C)cc2c1=O, the Potency was inconclusive [activator, partial curve, poor fit]. With O=C(c1cccs1)N1CCN(S(=O)(=O)c2cccc(Cl)c2Cl)CC1 the Potency was “inactive”. In the case of CCOC(=O)N1CCN(C(=O)C(NC(=O)c2ccc(C(C)(C)C)cc2)C(C)C)CC1 (stereo unspecified), the Potency is reported as “inactive”. With Cc1cc(C)cc(C(=O)NCC(=O)OCc2cc([N+](=O)[O-])cc3c2OCOC3)c1 the Potency was inconclusive [activator, single point]. For Cn1ncc(Br)c1C(=O)Nc1c(F)c(F)cc(F)c1F, the Potency was inconclusive [activator, partial curve, poor fit]. For Cc1cccc(Cc2c(C)[nH]c(=O)c(C#N)c2C)c1, the Potency was inconclusive [activator, single point]. For Cc1cc(N/N=C/c2ccccc2O)c2ccccc2n1, the Potency was active: 11.6 µM. For CCc1nc2ccc(C(=O)N(C)CC(=O)Nc3ccc(Cl)c(C(F)(F)F)c3)cc2nc1CC, the Potency was inconclusive [activator, single point]. For CCCCOC(=O)n1c(=S)oc2cc(Cl)ccc21, the Potency was inconclusive [activator, single point]. For CC(=O)NS(=O)(=O)c1ccc(NC(=O)/C=C/c2ccc(C)o2)cc1, the Potency was inconclusive [activator, single point]. In the case of Cc1ccnc(NS(=O)(=O)c2ccc(NS(=O)(=O)c3ccc([N+](=O)[O-])cc3)cc2)n1, the Potency is reported as “inactive”. For COc1cc(OC)c(S(=O)(=O)Nc2ccccc2C(=O)O)cc1S(=O)(=O)Nc1ccccc1C(=O)O, the Potency was “inactive”. In the case of O=C(NC1CCCC1)C(c1ccccc1)N(Cc1ccc2c(c1)OCO2)C(=O)Cc1cccs1 (stereo unspecified), the Potency is reported as inconclusive [activator, single point]. With O=C(Oc1ccc(Cl)c2cccnc12)c1ccco1 the Potency was active: 7.31 µM. In the case of CC(c1ccccc1)N1C(=O)c2ccc(C(=O)NCc3cccnc3)cc2C1=O (stereo unspecified), the Potency is reported as “inactive”. For O=C(COC(=O)C1(c2ccc(F)cc2)CCCC1)NCc1ccco1, the Potency was “inactive”. In the case of C=CCN(CC=C)C(=O)CN1C(=O)NC(C)(c2ccc3cc(OC)ccc3c2)C1=O (stereo unspecified), the Potency is reported as inconclusive [activator, single point]. For O=C(O)C1CCC(N2C(=O)C3C4CCC(C4)C3C2=O)CC1 (stereo unspecified), the Potency was “inactive”. With Cn1cc(C(=O)N/N=C/c2c(O)ccc3ccccc23)ccc1=O the Potency was active: 25.9 µM. For O=C(NCc1ccccn1)c1coc(=O)c(Br)c1, the Potency was inconclusive [activator, single point]. With O=C(CCN1C(=O)/C(=C\c2ccccc2)SC1=S)NNC(=O)c1ccccc1O the Potency was inconclusive [activator, single point]. For COc1ccccc1N1CCN(c2ccnc3cc(Cl)ccc23)CC1, the Potency was active: 2.59 µM. With COc1ccc(C)cc1NC(=O)CNC(c1ccccc1)c1ccccc1 the Potency was inconclusive [activator, single point]. With Cc1ccc(NC(=S)N2CCN(S(=O)(=O)c3ccc(C)cc3)CC2)cc1 the Potency was “inactive”. For O=C(C1=C[C@@H](c2ccc(Br)cc2)C[C@@H](OCc2ccc(CO)cc2)O1)N1CCN(Cc2ccccc2)CC1, the Potency was inconclusive [activator, single point]. For Cc1cccc(NC(=O)CSCC(=O)NCc2ccco2)c1, the Potency was “inactive”. For CC(C)(C)c1ccccc1OCC(=O)Nc1ccccc1C(=O)NCc1cccnc1, the Potency was inconclusive [activator, single point]. With O=C(N/N=C/c1ccccn1)c1ccc(Br)cc1 the Potency was inconclusive [activator, partial curve, poor fit]. For CCOc1cc(/C=C2/NC(=O)NC2=O)cc(Br)c1OCc1ccc(C(=O)O)cc1, the Potency was inconclusive [activator, single point]. In the case of CCOC(=O)c1c(NC(=O)CSc2nnc(-c3cccc(C)c3)n2CC)sc(C(C)=O)c1C, the Potency is reported as inconclusive [activator, single point]. In the case of CN(C)CC1CCCCC1OC(=O)/C=C/c1ccccc1 (stereo unspecified), the Potency is reported as “inactive”. With CCCc1[nH]n(-c2ccc(F)cc2)c(=O)c1C=Nc1cccc(F)c1 the Potency was inconclusive [activator, single point]. With COc1ccc([C@H]2CC(=O)C=C(/C=C/c3ccccc3)C2)cc1OC the Potency was inconclusive [activator, full curve, poor fit]. With CCCCCCn1c(CN2CCCCC2C)nc2c1c(=O)n(C)c(=O)n2C (stereo unspecified) the Potency was inconclusive [activator, single point]. With COc1ccc(-c2cn3ccccc3n2)cc1[N+](=O)[O-] the Potency was “inactive”. In the case of CCOC(=O)Cc1csc(SCC(=O)c2c(N)n(CC(C)C)c(=O)n(C)c2=O)n1, the Potency is reported as inconclusive [activator, single point]. In the case of Cc1cccc(-c2nnn3c2nc(NCCc2ccc(S(N)(=O)=O)cc2)c2ccccc23)c1, the Potency is reported as active: 5.17 µM. For Cc1ccc(Cl)c(NC(=O)CSc2cccc[n+]2[O-])c1Cl, the Potency was “inactive”. With O=C(Nc1cccc(NC(=O)c2ccc(Cl)cc2Cl)c1)c1cccnc1 the Potency was “inactive”. For Cc1ccc2c(c1)C=CC(C#N)N2C(=O)c1ccccc1 (stereo unspecified), the Potency was inconclusive [activator, full curve, poor fit]. For O=C(O)c1ccc(OCCOc2ccccc2)cc1, the Potency was inconclusive [activator, full curve, poor fit]. In the case of CC1(C)CC(NC(=O)C2CCN(S(=O)(=O)c3ccc(F)cc3)CC2)CC(C)(C)N1, the Potency is reported as “inactive”. With Cc1ccc(S(=O)(=O)N2CCN(Cc3ccccc3)CC2)cc1 the Potency was inconclusive [activator, single point]. With Cc1cc(Cl)ccc1OCC(=O)N1CCCN(C(=O)COc2ccc(Cl)cc2C)CC1 the Potency was inconclusive [activator, single point]. With CCCn1c(C2CCCN2c2nc(-c3cccc(Br)c3)cs2)nc2cc(Cl)c(Cl)cc21 (stereo unspecified) the Potency was inconclusive [activator, single point]. With Cc1ccc(C)n1-c1ccccc1N1CCCCC1 the Potency was “inactive”. With CN1c2ccccc2-c2nc3ccccc3n2C1c1ccccn1 (stereo unspecified) the Potency was inconclusive [activator, partial curve, poor fit]. For COC(=O)C(C)Nc1cccc(Br)c1 (stereo unspecified), the Potency was “inactive”. For Cc1nonc1C1CCCN1Cc1cn[nH]c1-c1ccc(-c2ccccc2)cc1 (stereo unspecified), the Potency was inconclusive [activator, single point]. With CN(CCc1ccccc1)C(=O)c1ccc(NC(=O)Cc2ccc(NC(=O)C3CCN(C(=O)C4CCCCC4)CC3)cc2)cc1 the Potency was inconclusive [activator, partial curve, poor fit]. For COc1cc(NC(=O)c2cccs2)c(OC)cc1NC(=O)CCC(=O)Nc1ccc2ncccc2c1, the Potency was active: 20.6 µM. With O=C1CN(C(=O)/C=C/c2ccccc2F)c2ccccc2N1 the Potency was inconclusive [activator, partial curve, poor fit]. For CC(C)C[C@H](N)c1cn([C@@H](CCCCN)C(=O)N2CCNCC2)nn1, the Potency was “inactive”. For CC(/C=N/NC(=O)c1cc(-c2ccc3ccccc3c2)n[nH]1)=C\c1ccco1, the Potency was active: 7.31 µM. With COC(CNC(=O)CN1CCN(Cc2ccccc2F)C1=O)OC the Potency was “inactive”. With Cc1ccccc1OCCC(=O)NNC(=O)COc1cccc(F)c1 the Potency was inconclusive [activator, partial curve, poor fit]. For O=C(NP(=O)(N1CCCC1)N1CCCC1)C1=C(N2CCOCC2)/C(=C/c2cccc([N+](=O)[O-])c2)CC1, the Potency was “inactive”. In the case of Oc1ccc(-c2nccc(-c3ccccn3)n2)cc1, the Potency is reported as “inactive”. For O=C(Nc1ccc2ccccc2c1)c1ccc(NS(=O)(=O)c2ccc(Br)s2)cc1, the Potency was inconclusive [activator, partial curve, poor fit]. In the case of N#Cc1ccc(-c2ccccc2)nc1Sc1ccc(F)cc1, the Potency is reported as inconclusive [activator, partial curve]. In the case of O=C(c1c(F)c(F)c(F)c(F)c1F)N1CCN(c2cccc(C(F)(F)F)c2)CC1, the Potency is reported as inconclusive [activator, single point]. In the case of Cn1c(N)c(C(=O)CSc2nn(-c3ccc(F)cc3)c(=S)s2)c(=O)n(C)c1=O, the Potency is reported as inconclusive [activator, single point]. With CCN(C(=O)COC(=O)/C=C/c1cnc2ccccc2n1)c1ccccc1 the Potency was inconclusive [activator, partial curve, poor fit]. In the case of N=c1c(C(=O)NCc2ccco2)cc2c(=O)n3ccccc3nc2n1CCc1ccccc1, the Potency is reported as active: 8.2 µM. In the case of CCC1(CC)C(=O)C2=C3C1[C@H](C(=O)OC)CC(C(=O)OC)C[C@H]3n1c(=O)n(C)c(=O)n1[C@H]2C (stereo partly specified), the Potency is reported as inconclusive [activator, partial curve, poor fit]. For O=C(Nc1ccccc1)C1C2CCC3C(CCC21)C3(Cl)Cl (stereo unspecified), the Potency was “inactive”. For O=C(CSc1nccc(=O)[nH]1)Nc1ccc(N2CCOCC2)cc1, the Potency was “inactive”. In the case of COc1cccc(C2C=C(c3ccc(OC)cc3OC)Nc3nnnn32)c1 (stereo unspecified), the Potency is reported as inconclusive [activator, single point].
